According to paper PMC4336329 (PLoS ONE, 2015):
About 14,000 (4.5%) of roughly 310,000 compounds showed an effect of 50% or more. The effect is printed as a negative number. The list shows a part of the results.

Molecular target: human ether-à-go-go-related gene (hERG) potassium channel (human, UniProt Q12809)
Experiment: primary screen, population patch clamp on CHO cells stably expressing hERG
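Note: peak tail current of the secondary pulse compared with the same well before compound.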

Chain of human ether-à-go-go-related gene (hERG) potassium channel (Q12809 whole entry, looked up): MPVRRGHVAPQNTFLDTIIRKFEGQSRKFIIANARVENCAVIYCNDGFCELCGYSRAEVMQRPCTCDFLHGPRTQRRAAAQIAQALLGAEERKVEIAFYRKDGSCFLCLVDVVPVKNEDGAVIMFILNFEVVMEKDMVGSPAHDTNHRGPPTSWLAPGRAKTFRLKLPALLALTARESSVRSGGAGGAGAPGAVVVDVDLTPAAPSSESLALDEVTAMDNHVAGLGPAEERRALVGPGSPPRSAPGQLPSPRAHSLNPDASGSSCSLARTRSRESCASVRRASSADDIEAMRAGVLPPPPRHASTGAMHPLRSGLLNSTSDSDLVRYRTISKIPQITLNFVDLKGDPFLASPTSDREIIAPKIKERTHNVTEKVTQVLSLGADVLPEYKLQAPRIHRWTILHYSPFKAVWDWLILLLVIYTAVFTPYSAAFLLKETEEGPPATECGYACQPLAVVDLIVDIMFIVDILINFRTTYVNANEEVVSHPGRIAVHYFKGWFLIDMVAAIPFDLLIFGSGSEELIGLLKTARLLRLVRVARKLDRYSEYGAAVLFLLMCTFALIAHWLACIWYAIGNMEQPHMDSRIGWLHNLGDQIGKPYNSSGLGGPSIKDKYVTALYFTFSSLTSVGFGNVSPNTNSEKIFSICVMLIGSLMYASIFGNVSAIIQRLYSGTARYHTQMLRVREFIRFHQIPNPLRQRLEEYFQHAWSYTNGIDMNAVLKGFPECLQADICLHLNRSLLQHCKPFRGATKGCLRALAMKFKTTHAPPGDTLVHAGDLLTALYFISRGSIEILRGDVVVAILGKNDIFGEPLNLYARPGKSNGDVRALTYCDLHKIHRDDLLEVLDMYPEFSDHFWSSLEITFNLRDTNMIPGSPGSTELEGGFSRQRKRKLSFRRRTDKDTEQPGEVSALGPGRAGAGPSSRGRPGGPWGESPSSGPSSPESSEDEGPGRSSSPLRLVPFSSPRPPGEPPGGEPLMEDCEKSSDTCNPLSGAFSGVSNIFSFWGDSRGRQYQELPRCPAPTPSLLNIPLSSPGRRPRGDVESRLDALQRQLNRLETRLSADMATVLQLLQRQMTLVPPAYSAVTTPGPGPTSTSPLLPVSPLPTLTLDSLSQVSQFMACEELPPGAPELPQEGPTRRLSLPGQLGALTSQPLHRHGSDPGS

Structure (SMILES) | hERG current change (%, negative = inhibition) at 10uM [%]
Cc1cccc(CN2CCCC(C(=O)Nc3ccc(-c4cscn4)cc3)C2)c1 (stereo not shown) | -31.5
COc1ccccc1CNC(=O)CSc1ccc(-c2cccs2)nn1 | -17.1
N#Cc1ccc(/C=C/C(=O)c2ccc3c(c2)OCO3)cc1 | 2.93
CNS(=O)(=O)c1cnccc1N1CCN(c2cccc(C(F)(F)F)c2)CC1 | -14
Cc1ccc(N(C(=O)CC2NC(=O)NC2=O)C2(C(=O)NC3CCCC3)CCCCC2)cc1 (stereo not shown) | 8.11
N#Cc1ccc(OCc2nnc3n2CCCCC3)cc1 | -17.5
CCCCCCc1cc2cc(/C(N)=N/NC(=O)c3ccncc3)c(=O)oc2cc1O | 14.4
COc1ccc(Nc2ncnc3c2cnn3Cc2ccccc2)cc1 | -18.1
Cc1cccc(C)c1-n1nnnc1C1(Nc2ccccc2)CCCCC1 | -4.36
CCOc1ccc(NC(=O)C2CCN(S(=O)(=O)CC)CC2)cc1 | 15.7
CC(C)CCn1c(C(C)O)nc2ccccc21 (stereo not shown) | 12.7
Cc1ccccc1NS(=O)(=O)c1cc(OCC(N)=O)c(C)cc1Cl | 5.68
Cc1ccc(N(C)C(=O)CC(C)S(=O)(=O)c2ccc3c(c2)NC(=O)CO3)cc1 (stereo not shown) | -1.4
CN(C)C(=O)c1cc(-c2ccccc2)no1 | 32.8
O=C(COC(=O)CCSc1ccccc1Cl)Nc1ccc(F)cc1F | 4.36
COc1cnc(-c2ccccn2)nc1Oc1cccc(C(F)(F)F)c1 | 2.9
O=C(NC(=S)NCCO)c1sc2ccccc2c1Cl | -0.142
CCC(=O)N(CC)Cc1cc(=O)[nH]c2ccccc12 | 1.27
Cc1ccccc1CC1(CO)CCCN(C(=O)CCN2CCCO2)C1 (stereo not shown) | 9.14
O=C(COC(=O)c1cccc(-n2cnnn2)c1)c1ccc(Br)cc1 | 9.98

Structure (SMILES) | hERG current change (%, negative = inhibition) at 10uM [%]
COCc1cc(C)nc2sc3c(=O)oc(C)nc3c12 | -11.1
Cn1cc(CCC(=O)N2CCCC(CCC(=O)NCc3ccccc3F)C2)cn1 (stereo not shown) | 3.97
CCOc1cc(C(=O)Nc2cccnc2)cc(OCC)c1OCC | 10.1
C=CCn1c(O)c(N=O)c2ccccc21 | 12.3
CCOC(=O)C(NC(=O)c1ccccc1)=C1C=C(C)OC(C)=C1 | 14.5
COc1cc(CNc2ccc(N3CCCC3)cc2)cc(Cl)c1OC | 9.98
Cc1nc([N+](=O)[O-])cn1CC(O)c1ccc(-c2ccccc2)cc1 (stereo not shown) | -44.3
N/C(=N\OC(=O)c1ccco1)c1ccccc1 | 2.21
Cc1ccc(NC(=O)c2cc(-c3ccccc3)nn2-c2ccccc2)c(Br)c1 | -3.82
Cc1ccc(S(=O)(=O)CCC(=O)Nc2cccc([N+](=O)[O-])c2)cc1 | -24.3
Cc1cc(C)c(-c2noc(C(=O)OC(C)(C)C)c2C(=O)OC(C)(C)C)c(C)c1 | 6.28
Cc1ccc(CNC(=O)C2(NC(=O)Nc3ccc(C)cc3)CCCCC2)cc1 | 10.6
Cc1cc(C)cc(NC(=O)c2cc(Cl)sc2Cl)c1 | 8.61
CC1CCCN(C(=O)C(C)Sc2nc(-c3ccccc3)cc(C(F)(F)F)n2)C1 (stereo not shown) | 7.42
O=C(Nc1ccc2cn[nH]c2c1)c1ccccc1F | 6.91
CCOCCn1c(CN2CCN(c3ccccc3)CC2)nc2c1c(=O)n(C)c(=O)n2C | -22.1
O=C(NCC(=O)N1CCN(C(c2ccccc2)c2ccccc2)CC1)c1ccccc1F | -0.366
CC1(C)c2ccccc2-n2c1cc1oc(=O)cc(O)c1c2=O | 8.01
NC(=O)c1nn(CC(=O)Nc2ccc3c(c2)OCO3)cc1[N+](=O)[O-] | 19.6
O=[N+]([O-])c1cc(Cl)cc2c1nc(NCCO)c1ccccc12 | 21.7

Structure (SMILES) | hERG current change (%, negative = inhibition) at 10uM [%]
CC(C)CNc1oc(-c2ccco2)nc1C#N | -15.3
O=C(O)CCNC(=O)COc1ccc2c3c(c(=O)oc2c1)CCCC3 | 15.2
O=C(Nc1ccccc1)c1ccccc1Oc1ccc(C(F)(F)F)cc1[N+](=O)[O-] | 9.75
CCOC(=O)CSc1nc2cc(S(=O)(=O)N3CCOCC3)ccc2n1CC | -26.2
CCC(=O)N1CCN(c2ccc(NC(=O)c3cccs3)cc2)CC1 | -0.84
CCn1c(C)c(C(C)=O)c(N2CCN(c3ccc(F)cc3)CC2)nc1=S | -37.8
Cc1nc2ccccc2c(=O)n1NC(=O)Nc1ccccc1 | -8.45
Cc1ccccc1Cn1ccc(NC(=O)c2nn(C)cc2[N+](=O)[O-])n1 | -1.2
O=C(NCc1cc(C(F)(F)F)cc(C(F)(F)F)c1)C1CC(c2c(Cl)cccc2Cl)=NO1 (stereo not shown) | 12.9
C[C@@H](NC(=O)c1cc2c([nH]c3ccccc32)c(-c2ccccc2)n1)C(=O)O | 10.3
COc1ccc(C(=O)N/C(=C\c2ccco2)C(=O)NCc2cccnc2)cc1 | -66.7
Cc1ccc(C(=O)CCC(=O)Nc2ncccc2O)cc1 | 17.1
Cc1ccc(N2CC(C(N)=O)CC2=O)cc1C (stereo not shown) | -3.71
CCOC(=O)C1CCCN(C(=O)Cn2ncc3c([nH]c4ccccc43)c2=O)C1 (stereo not shown) | -27.8
COc1ccc([C@H]2CC(=O)C=C(c3cccc(C#N)c3)C2)cc1 | -72.3
Cc1ccn2cc(-c3nonc3C)cc2c1 | -16.9
Cc1ccc(N2CC(=O)N(c3ccc(C)cc3)CC2=O)cc1 | 13.3
OC(CN1CCN(c2ncc(C(F)(F)F)cc2Cl)CC1)c1ccccc1 (stereo not shown) | -58
